Results on 90 sequences are retold here after the supplement of paper PMC11417369.

± gives the standard deviation of the averaged measurements. The list shows a part of the results.

This experiment concerns PfAP2-G AP2 domain (GST-tagged). As to the kind of experiment: gcPBM binding intensity (ln(normalized median fluorescence intensity)); higher = stronger DNA binding. A digest of the protocol: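 The binding buffer was 1× PBS containing 1% milk, 0.2 mg/ml BSA, 0.5% salmon testes DNA and 0.03% Triton X-100. In it, GST-tagged P. falciparum DNA-binding domains expressed in E. coli were applied for 1 h to an Agilent 4 × 180k array of primer-extended double-stranded 36-bp intergenic genomic probes plus negative controls. Binding intensity, read with Alexa488 anti-GST antibody and a 488 nm scan, is the highest Masliner-normalised natural-log median intensity across replicate spots of either probe orientation.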
Consider “TTTATTTTTTAATGATGTACTATTTATCCAGAAAAG [XGTACX_site7750]”, for which the “gcPBM binding intensity (ln)” value turned out to be 11.2 ± 0.92.
Under “GGAATAGTAATATATACACACAAATACATATATATA [CACACA_site67]” stands 9.99 ± 0.23; under “ATAATGAAAAGGAACATACACACCCCATATAAATAT [CACACA_site3442]”, 10.2.
Under “ATAAGCTCATGCAGGTGTACACAAAAAGAAAAAAAA [XGTACX_site2433]” stands 11.6 ± 0.81.
Under “AAAAAAAAATACATATGTACTTATGTATAATGTTGT [XGTACX_site8104]” stands 11.1 ± 0.61; under “ATTATACCACCCGATATACACACTTGTAGACATCTT [CACACA_site7944]”, 10.2 ± 0.16.
“TTTTTTTAATTAGTTTGTACATATTGTTATAATATA [XGTACX_site6294]”: the “gcPBM binding intensity (ln)” value turned out to be 10.8 ± 0.37.
The same measure for “CATGTTATGATTCCATGTACTTATAGCATTAAAAAA [XGTACX_site8939]”: 11.2 ± 0.71; for “ATAAAAAGGAGACACACACACACACGCATATTTATA [CACACA_site6551]”: 10.3 ± 0.29.
As for “TATATTAAACCATGTAGTACCTTGAATAAATATTAT [XGTACX_site8254]”, the “gcPBM binding intensity (ln)” value stood at 11 ± 0.67.
Under “TATAAAAATGTTTACACACACACATAAATATATTTT [CACACA_site2512]” stands 10.035 ± 0.007.
Under “TTTTTTTTTTTTCTGAGTACGAAAAATAGAGATAGA [XGTACX_site3825]” stands 11 ± 0.79; under “TGTATAAATATAATCACACATATATATATATATATA [CACACA_site4365]”, 9.96 ± 0.38; under “AACATATATATATATACATGCATATGAACAACGAAT [TGCATGCA_site93]”, 9.955 ± 0.035.
For the sequence “CAAGAAAATTGACACACACACATATTTATATTTATA [CACACA_site7766]”, the “gcPBM binding intensity (ln)” value amounted to 10.2 ± 0.17.
Turning to “AAGTTACAAAATCAAAAGGAAAAAATATAAAATAAT [CACACA_negctrl_site561]”, the “gcPBM binding intensity (ln)” value came out at 9.81 ± 0.15.
Regarding “CAACTAATATTAAAACGTACATAAATATTTAACAGA [XGTACX_site625]”, the “gcPBM binding intensity (ln)” value turned out to be 11.3 ± 0.79.
The same measure for “ATATATATATATATATGTACATATATTTTTATTTAT [XGTACX_site3508]”: 11.2 ± 0.76; for “AAAAAAAATATATATGCACACACAAAAAAACAAATT [CACACA_site8349]”: 10.2 ± 0.15; for “ATCACATATATATATAATATATATATGTATATATTT [GTGCAC_negctrl_site249]”: 9.45 ± 0.11.
“TTGTAATAAAGAATTAAAAAAAAATATATACAGGTA [GTGCAC_negctrl_site150]”: the “gcPBM binding intensity (ln)” value amounted to 9.885 ± 0.092.
Under “TTAAAATAAAGAAAATGTACATAAATAAAAATAAAG [XGTACX_site2280]” stands 11.3 ± 0.69; under “TTTTACCTAAATATCACACATATTTAAATATATATA [CACACA_site5597]”, 10 ± 0.15; under “TATACCTTTTTATTCACACATATATGTCATATGTCA [CACACA_site5423]”, 9.95 ± 0.071.
The same measure for “TTAATTACATGTAATTGTACTTAATTATAAGACATT [XGTACX_site464]”: 11.1 ± 0.86; for “TATTACTTATAAATTACACACAAATGATTGAACATT [CACACA_site2259]”: 9.935 ± 0.064.
Under “TATAATAATTATACATGTACACATTATTTGGATAAA [XGTACX_site5552]” stands 11.6 ± 0.98; under “TTTTTATATTTAATGTGTCCTCACTTAAAAGGATGA [XGTACX_site2744]”, 11.1 ± 0.81.
In the case of “ATTCTCCAAGTTTGATGTACACATATGACGACGGCG [XGTACX_site4912]”, the “gcPBM binding intensity (ln)” value turned out to be 11.4 ± 0.89.
Under “AATATATTTTTTGGTTGTACAGAGATCTTTGTAGAA [XGTACX_site1707]” stands 11.1 ± 0.72; under “CATATAGCATAATCATGTACACATACAACAAATAGG [XGTACX_site1589]”, 11.5 ± 0.77.
Under AAAAATTATAGAAAAGTGCAATACATGTTACACCAT stands 10.1 ± 0.13; under “TACAATAAGGATAAGTGTACATATGTGCATACATAT [XGTACX_site7188]”, 11.1 ± 0.61; under “TATATATATATATATACACACTATATAATTCAAACA [CACACA_site4712]”, 10.1 ± 0.63.
The same measure for “ATGAATAAATTAAAAATGCACACTTTGATGGGTACA [CACACA_site2157]”: 10.7 ± 0.43.
Consider “AAACTTGTAAGAAACACACACACACCCATATATATA [CACACA_site797]”, for which the “gcPBM binding intensity (ln)” value was determined as 10.1 ± 0.29.
Under “AAATTGGGGCTTGTTACACACTTAGTGGGAGTTCTA [CACACA_site4485]” stands 10.5 ± 0.42; under “TTACGATTATACAAAAGTACATGTATTACACAATAT [XGTACX_site5138]”, 11.3 ± 0.86.
Regarding “TATACCAGTTTTAAAAGTACTTGTGCATAAAAAATA [XGTACX_site4794]”, the “gcPBM binding intensity (ln)” value amounted to 11.2 ± 0.7.
Under “TATATTTTCCTGCAAACACACATATAAATGTGTAGA [CACACA_site533]” stands 10.1 ± 0.16; under “TAATAATAAAAATAAACACACATATATATGTATATA [CACACA_site2853]”, 9.88 ± 0.099; under “ATATTTATTTATTTATGTACGCACACAGTTGATATT [XGTACX_site5808]”, 11.7 ± 1.
Regarding “CACTATATAAGAACCTGTACTCAATTTTGCAATATA [XGTACX_site7238]”, the “gcPBM binding intensity (ln)” value amounted to 11.3 ± 0.76.
The same measure for “AAATTATATTCAAGTGCATGTAACTTATTATTATAT [TGCATGCA_site526]”: 9.94 ± 0.085; for “AATCTTAAAAATATATGTACTAAAAAAAAAAAAAAT [XGTACX_site6195]”: 11.2 ± 0.81.
Take “AACATGCTCAACTTTTTTTTTTTTTTTTTTTTTTTT [CACACA_negctrl_site1617]”: the “gcPBM binding intensity (ln)” value is 10.8 ± 0.48.
As to “GTAAAAATAAAAACTGGTACACAAGTTGTTATAAAA [XGTACX_site502]”, the “gcPBM binding intensity (ln)” value was 11.3 ± 0.72.
The same measure for “AAAATAAAATAAAAGTGTACGTTTTAAGAACATTGA [XGTACX_site2382]”: 11.5 ± 0.95; for “CTTTTTTGTTAAAGTGTGCGCAATAGTTATAGACTT [GTGCAC_site9670]”: 10.7 ± 0.52.
As for “TATAATCAATATGTAACACACAAAAGTTATATACTT [CACACA_site7368]”, the “gcPBM binding intensity (ln)” value worked out at 9.92 ± 0.11.
The same measure for ATATGTATATATAAGGTGCAGAAAGGTGGGCAAAAG: 10.9 ± 0.59.
The same measure for “TAAATACAGATATATACACACATATATATATTTTAT [CACACA_site5970]”: 9.755 ± 0.007.
Under “TACATTTATATATATACACACACACTAATAAAAAAA [CACACA_site8845]” stands 10.2 ± 0.28; under “TACAGACTAAAATACACACACACACGCACATATATA [CACACA_site7875]”, 10.3 ± 0.17.
On to “TTTTTCTTTATTAGCACACATAATATTATATATGTG [CACACA_site2629]”, for which the “gcPBM binding intensity (ln)” value is 10.4 ± 0.2.
For “TCATATATTTTAATATGTACACATTTTTTTGGTATA [XGTACX_site8695]”, the “gcPBM binding intensity (ln)” value was found to be 11.5 ± 0.72.
The same measure for “ATAATAAATAAATAATGTACATATGAAAGAATAAAT [XGTACX_site8355]”: 11.1 ± 0.49; for “CTTTTGTCATTCTTTTGTACACAGTTTGAAATATGT [XGTACX_site1457]”: 11.2 ± 0.68.
The same measure for “AAATAGAGAAATACAAGTACATATCAAACCAATATA [XGTACX_site1192]”: 11.2 ± 0.8; for “ATAAAAAAGAAACAAACACACATACATACAAACAAA [CACACA_site4256]”: 10.2 ± 0.22.
On to “AAAAAAAACGGACACACACACATACCCATACATACA [CACACA_site5574]”, for which the “gcPBM binding intensity (ln)” value came to 11.3 ± 0.91.
Under “ATATAAATACATAAATGTACTTACCATTTAAATATG [XGTACX_site5254]” stands 11.2 ± 0.72; under “TTCACCAGTTGGTAAACATGCAATTTTCCATACAAG [TGCATGCA_site267]”, 10 ± 0.15.
Regarding ATTCTTTTAAAATAGGTGCTAAAAATAATATGTTAC, the “gcPBM binding intensity (ln)” value amounted to 10.02 ± 0.085.
Consider “GCATATGTTTATTGCACACACCAAAAAGAAAACATA [CACACA_site4384]”, for which the “gcPBM binding intensity (ln)” value amounted to 10.2 ± 0.21.
Consider “AAAGAAAGAAGAAATTGTACATAATAAATAAGTAAA [XGTACX_site3311]”, for which the “gcPBM binding intensity (ln)” value was determined as 10.8 ± 0.57.
“ATATAAACAATATTTTGTACATAATTTTATGAGCAT [XGTACX_site6933]”: the “gcPBM binding intensity (ln)” value came out at 10.8 ± 0.35.
The same measure for “AAAGGAAAAAAAAGCACACACAATATTACTTGAAAT [CACACA_site2588]”: 9.915 ± 0.092; for “TATATACACAGACACACACACACATACACGCACATA [CACACA_site6909]”: 10.5 ± 0.38; for “GTACTATACAAAGATGATAATCAATATATATATATA [XGTACX_negctrl_site264]”: 10.5 ± 0.6.
The same measure for “ATTATTTGTTTAATGAGTACGAAGACAAATTTTACC [XGTACX_site5223]”: 11.1 ± 0.48; for “ATAAAAATAAAAAGTGTGCACACAAAAATATATATA [GTGCAC_site9931]”: 10.7 ± 0.3; for “TAATTTTATTTTATATGTACGCAATACAAATATATA [XGTACX_site8461]”: 11.3 ± 0.98.
For the sequence “TTAATTGACATAAAAAGTACTCATATAGATATGCAC [XGTACX_site6391]”, the “gcPBM binding intensity (ln)” value amounted to 11.2 ± 0.71.
On to “AAAAAGAACAGAAACACACAAATAAAATAAAATTGT [CACACA_site6921]”, for which the “gcPBM binding intensity (ln)” value turned out to be 9.77 ± 0.014.
The same measure for “AAATGTTAATAAAGGTGTACACAAAATAAAAAAAAT [XGTACX_site463]”: 11.7 ± 0.71; for “AAGATTCATTGGTTCTGTACAAAATAAACACTATAA [XGTACX_site834]”: 10.7 ± 0.34; for “CACCCCCACAGACACACACACACACCCATATATATA [CACACA_site364]”: 11.2 ± 0.81.
As for “ATATATTATGAAGACTGTACATTTACATGAAAAAAA [XGTACX_site7203]”, the “gcPBM binding intensity (ln)” value was determined as 10.9 ± 0.45.
Under “TTACCAAAAAAATGTAGTACAATATAATATTATTTA [XGTACX_site5750]” stands 11.6 ± 0.95; under AATATATATATTTAAGTGCATAATATTGTAATATTA, 9.91 ± 0.028; under “CTTCAATTAAAATTCACACATATAAATTAAAATATT [CACACA_site6129]”, 9.62 ± 0.042.
The same measure for “ACATATTATATATGTGTGCACATATATATATATTTA [GTGCAC_site9591]”: 10.3 ± 0.23; for “ATATTTGCATGTGGTAGTACATAACATTCTTTTACA [XGTACX_site8194]”: 11.6 ± 1.1; for “ATATCTTATAATACGGTGCACTTGACATGAACAACT [GTGCAC_site9987]”: 10.6 ± 0.48.
“AGAGAGAAAGCTATAACATGCAACAATTTTTTGAAA [TGCATGCA_site514]”: the “gcPBM binding intensity (ln)” value came out at 9.66 ± 0.15.
Regarding “ATATATAATTAATTTTGTACACATAAAAAAAAAAAT [XGTACX_site6647]”, the “gcPBM binding intensity (ln)” value is 11.4 ± 0.69.
Under “TTTATATATATAATATGTACACATAATAATAATACA [XGTACX_site4862]” stands 11.6 ± 0.91; under “AAATGACATTTCAAAAGTACATATTTAATTAATTAA [XGTACX_site2919]”, 11.1 ± 0.73; under “AAAAAATATTAGACTTATAAAGCATAAAGGATATTA [GTGCAC_negctrl_site588]”, 9.75 ± 0.13.
